Sequences and labels used below:
B1: LINE1-mini (parent)
chain: GGCAGAGCUCAACACAGCGUGGCAAAGUGGCUGUGGCUAGACUGCC

The source gives no read counts; variants with many changes may rest on few reads.

This data set covers variants of B1. Description: self-cleavage, relative activity (ratio to wild type); higher = more cleavage; in vitro, sequencing; the parent is a self-cleaving ribozyme.
On to GGCAGAGUUCAACGCAGCGUGGCAAAGCGGCUGUGGCUAGACUGCC [C8U A14G U28C], for which the self-cleavage was 0.04. In the case of GGCAGAGUUAAACACAGCGUGGCGAAGUGGAUGUGGCUAGACUGCC [C8U C10A A24G C31A], the self-cleavage stood at 0.01.

In the case of GGCAGAGUUCAACACGUCGUGGCAAAGUUGCUGUGGCUAGACUGCC [C8U A16G G17U G29U], the self-cleavage was 0.31. In the case of GGCAGAGUUAAACACAGCGUGGCAAAGCGGCUGUGGCUAGACUGCC [C8U C10A U28C], the self-cleavage was determined as 0.02. On to GGCAGAGUUCGACACACCGUGGCAAAUUGGCUGAGGCUAGACUGCC [C8U A11G G17C G27U U34A], for which the self-cleavage was found to be 0.01. For GGCAGAGUUCAACACAGCGUGGCAUAGUCGCCGUGGCUGGGCUGCC [C8U A25U G29C U32C A39G A41G] the value was 0.02.

As to GGCAGAGUUAUACACAGCUUGGCAAAGUGGCUGUGGCUAUACUGCC [C8U C10A A11U G19U G40U], the self-cleavage was found to be 0. For GGCAGAGUUCAACACAGCGUGGCGAAAUGGCUGUGGCUUGACUGCC [C8U A24G G27A A39U], the self-cleavage was determined as 0.16. In the case of GGCAGAGUUCAGCACAGCGUGGCAAAGUGUCUGUGACUAGACUGCC [C8U A12G G30U G36A], the self-cleavage was determined as 0.03.

On to GGCAGAGUUCAACACCGCGUGGCAAAAUGGCUGUGGUUAGACUGCC [C8U A16C G27A C37U], for which the self-cleavage turned out to be 0.21. Consider GGCAGAGUUCAACACGGUGUAGCGAAGUGCCUGUGGCUAGACUGCG [C8U A16G C18U G21A A24G G30C C46G], for which the self-cleavage is 0.01. In the case of GGCAGAGUUCAGGACAGCGUGGCAAAGUGGCUGUGGCUAGACUGCC [C8U A12G C13G], the self-cleavage was 0.02.

As for GGCAGAGUUCAACACGGCGUGCCAAAGUGGCUGGGGCUAGACUGCC [C8U A16G G22C U34G], the self-cleavage came to 0.06. GGCAGAGUUCAACCCACCGUGGCAACGUGGUUGUGGCUAGUCGGCU [C8U A14C G17C A26C C31U A41U U43G C46U]: the self-cleavage was found to be 0.03. Turning to GGCAGAGUUCAACGCAGCGUGGCAAAGUGGCUGUGGUUAGACUGCC [C8U A14G C37U], the self-cleavage is 0.44. On to GGCAGAGUUCAACACAGCGUGGCACAGUGGCUGUGGUUAGACUGCC [C8U A25C C37U], for which the self-cleavage was found to be 0.12. As to GGCAGAGUUCAACACAGCGUGGCAAUGUAGCUGUGGGUAGUCUGCC [C8U A26U G29A C37G A41U], the self-cleavage came to 0.03.

In the case of GGCAGAGUUCAACACAGCGUGGCACAGAGGCUGUGGCUGGACAGGC [C8U A25C U28A A39G U43A C45G], the self-cleavage was 0. Consider GGCAGAGUUGAACACAGCGUGGGAAAGUGGCUGGAGCUAGACUGCC [C8U C10G C23G U34G G35A], for which the self-cleavage was found to be 0.02.

With GGCAGAGUUCAACUCAGCGAGGCAAAGUGGCUGUGGCUAGACUGCC [C8U A14U U20A], the self-cleavage was determined as 0.25.

In the case of GGCAGAGUUCACCACAGCGUGGCAAAGUGGCUGUGGCUAGACAGCG [C8U A12C U43A C46G], the self-cleavage turned out to be 0. For GGCAGAGUUAAACACCGCGUGGCAAAGUGGCUGUGGCUAGACUGCC [C8U C10A A16C] the value was 0.05; for GGCAGAGUUCAUCACAGCGUGGCAAGGUGCCUGUGGCUCGACUGCG [C8U A12U A26G G30C A39C C46G], 0.06; for GGCAGAGUUCAACUUCGCGUGGCCAAGUGUCUGUGGCUAGACUGCC [C8U A14U C15U A16C A24C G30U], 0.24. Consider GGCAGAGUUAAAAACAGCGUGGCAAAGUGGCUGUGGCUAGACUGCC [C8U C10A C13A], for which the self-cleavage was 0.03. As for GGCAGAGUUCAGCACAGCGUGGCAAAGUGGCAGUGGCUAGACUGCC [C8U A12G U32A], the figure is 0.17; as for GGCAGAGUUCAACACAGCGUGGCAAGGUGGCUCUGGCUAGACUGCC [C8U A26G G33C], 0.03. In the case of GGCAGAGUUGAACACAGCGUGGAAAAGUGGCUGUGGCUAGACUGCC [C8U C10G C23A], the self-cleavage is 0.01. With GGCAGAGUUCAACACAGCGUGGCGACGUGGCUGUGGCUAGACUGCC [C8U A24G A26C], the self-cleavage turned out to be 0.38. As for GGCAGAGUUCAACACGGCGCGGCAAAGUGGCUGUGGCGACACUGCC [C8U A16G U20C U38G G40C], the figure is 0; as for GGCAGAGUUCACCUCAGCGUGGCAAAGUGGCUGUGGCUAGACUGCC [C8U A12C A14U], 0.03.

As to GGCAGAGUUAAACACAGCGUGGCAAACUUGCUGUGGCUAGACUGCC [C8U C10A G27C G29U], the self-cleavage was 0.03. With GGCAGAGUUCAGCACAGCGUUGCAAAGUGGCAGUGGCUAGACUGCC [C8U A12G G21U U32A], the self-cleavage is 0.02. For GGCAGAGUUCAACCCAGCGUGGCAAACUGGCUGUGGCUAGACUGCC [C8U A14C G27C], the self-cleavage turned out to be 0.17. As to GGCAGAGUUCACCACAGCGUGGCAAAGUGGCUGUGGGUAGACUGCC [C8U A12C C37G], the self-cleavage amounted to 0.01. With GGCAGAGUUCAACACCGCGUGGCUAAGUGGCUGUGGCUAGACUGCC [C8U A16C A24U], the self-cleavage amounted to 0.03. Take GGCAGAGUUCAACACGGCGUGGCAAAGAGGCUGUGGCUAGACUGCC [C8U A16G U28A]: the self-cleavage amounted to 0.02. For GGCAGAGUUCAACACAGCGUGGCGAAGCGGCUGUGGCUAGACUGCC [C8U A24G U28C] the value was 0.14; for GGCAGAGUUCAACACAGCGUGGCACAGUGGCUGUGGCUAGACUGCA [C8U A25C C46A], 0.18; for GGCAGAGUUCAUCACAGCGUGGCAAAGUGGCUGUGGCUAGACGGCC [C8U A12U U43G], 0.04. Turning to GGCAGAGUUCAACACGGCGUGGCAAAGUGCCUGUGGCUACACUGCU [C8U A16G G30C G40C C46U], the self-cleavage turned out to be 0.16. Turning to GGCAGAGUUGAACAGAGCGUGGCAAAGUGGCUGUGGCUAGACUGCC [C8U C10G C15G], the self-cleavage worked out at 0.02. On to GGCAGAGUUAAACGCAGCGUGGCAAAGUGGCUGUGGCUAGACUGCC [C8U C10A A14G], for which the self-cleavage amounted to 0.02. For GGCAGAGUUCACCACAGCGUGGCAAAGUGGCUGUGGCUAGAAUGAC [C8U A12C C42A C45A] the value was 0.01; for GGCAGAGUUCAACACGGCGUGGCAAAGUGGCUGUGUCUAGACUGGC [C8U A16G G36U C45G], 0.04. On to GGCAGAGUUCGACACAGCGUGCCAAAGUGGCUGUAGCUAGACUGCC [C8U A11G G22C G35A], for which the self-cleavage amounted to 0.04.

In the case of GGCAGAGUUCACCACAGCGUGGCAAAGUGGCUGUGGCCAGACUGCC [C8U A12C U38C], the self-cleavage came to 0.17.

Turning to GGCAGAGUUGAACACAGCCUGGCAAAGUGGCGGUGGCUAGACUGCC [C8U C10G G19C U32G], the self-cleavage turned out to be 0. For GGCAGAGUUGAACACAUCGUGGCAAAGUGGCUGUGGCGAGACUGCC [C8U C10G G17U U38G] the value was 0.03; for GGCAGAGUUCAACUCAGGGUGGCAAAGUGGCUGUGGCUAGACUGCC [C8U A14U C18G], 0.38; for GGCAGAGUUCAGGACAGUGUGGCAAUGUGGCUGUGGCUAGACUGCC [C8U A12G C13G C18U A26U], 0.14. As for GGCAGAGUUGAAAACAGCGUGGCAGAGUGGCUGUGGCUAGACUGCC [C8U C10G C13A A25G], the self-cleavage stood at 0.02. In the case of GGCAGAGUUCAGCACUGCGUGGCAAAGUGGCUGUGGCUAGACUGCA [C8U A12G A16U C46A], the self-cleavage was 0.18. With GGCAGAGUUCAACCCAGCGUGUCAAAGUGGCUGUAGCUAGACUGCC [C8U A14C G22U G35A], the self-cleavage turned out to be 0.12.

With GGCAGAGUUCAACACUGCGUGGCAAAGAGGCUGUGGCCAGACUGCC [C8U A16U U28A U38C], the self-cleavage is 0.15. Consider GGCAGAGUUGUACACAGCGUGGCAAACUGGCUGUGGCAAGACUCAC [C8U C10G A11U G27C U38A G44C C45A], for which the self-cleavage was 0.

The values are drawn from the RNAGym collection of RNA variant scans (doi:10.7554/elife.90254).
